Biological target: MPER peptide PDT-081 (HIV-1)
Assay: BLI (Octet RED96), Fab over biotinylated peptide on streptavidin sensors

B1: PGZL1_gVgDgJ Fab (Fab, V domains shown)
VH: QVQLVQSGAEVKKPGSSVKVSCKASGGTFSSYAISWVRQAPGQGLEWMGGIIPIFGTANYAQKFQGRVTITADKSTSTAYMELSSLRSEDTAVYYCAREGEGWFGEPLRAFDVWGQGTVITVSS
VL: [about 100 residues left out]STFGQGTRLEIKR
- Kd: 938 nM

B2: PGZL1_gVgDmJ Fab (Fab, V domains shown)
VH: QVQLVQSGAEVKKPGSSVKVSCKASGGTFSSYAISWVRQAPGQGLEWMGGIIPIFGTANYAQKFQGRVTITADKSTSTAYMELSSLRSEDTAVYYCAREGEGWFGEPLRAFEFWGQGTVITVSS
VL: [about 100 residues left out]STFGQGTRLEIKR
- Kd: 148 nM

— US20240124560A1
